Measurements from PubChem BioAssay (Tox21).
Several values for one entry are separate records, joined by “and”; a condition that tells them apart may be missing. Equal entries are not always repeated. The inconclusive results got no clear call from the source; some entries with a clear call stand among them for comparison. Potencies of inconclusive entries are doubtful fits and often do not repeat. Activity calls are given as the source filed them. Unless noted, calls come from the whole dose curve; as a rule, active = well fitted cell-killing curve with a large enough effect in the repeat runs; inconclusive = weak or mixed curves; inactive = flat fitted curve, though single readings scatter.

Test system: not listed separately
Assay: qHTS assay to identify small molecule antagonists of the estrogen related receptor (ERR) signaling pathway from Tox21 library - cell viability counter screen (AID 1224834); note: nearly all actives have a fitted effect of over 30% in size
Settings: ERR reporter cells viability, CellTiter-Fluor, 17.5 h; series mostly up to 92.4 µM; viability change, negative = cytotoxic: at the top concentration
How it was run: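 Multiplexed viability counter screen in ERR cells: 17.5 h compound exposure at 37 C, CellTiter-Fluor added, 30 min at 37 C/5% CO2, fluorescence read.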
% is set by controls: 0 for no effect and ±100 for the full control effect; potency is the fitted concentration of half-maximal effect; tags give direction and shape of the fitted curve or compound fluorescence and quenching.

Row | Compound | Potency | viability change, negative = cytotoxic
1 | CC(C)(C)[C@@H](O)[C@@H](Cc1ccc(Cl)cc1)n1cncn1 | inconclusive: 48.5 µM [cytotoxic, partial curve] | 
2 | O=C(OCC1(COC(=O)c2cccnc2)CCCC(COC(=O)c2cccnc2)(COC(=O)c2cccnc2)C1O)c1cccnc1 | inconclusive: 13.3 µM [cytotoxic, partial curve] | 
3 | CC(C)(C)C1CCCCC1O (centres undefined) |  | inactive: 4.73%
4 | CC[N+](CC)(CC(=O)Nc1c(C)cccc1C)Cc1ccccc1 (tested in a mixture with another compound) |  | inactive: 6.92% [at 42.5 µM]
5 | C=CC(=C)CC/C=C(\C)CCC=C(C)C |  | inactive: 0.736% [at 19 µM]
6 | c1ccc2cnncc2c1 |  | inactive: 2.02%
7 | C=CCOC(=O)CC(C)C | inactive | 
8 | S=C(S)NCCNC(=S)S |  | inactive: 4.22%
9 | COc1ccc(-c2cc(=O)c3c(O)cc(O[C@@H]4O[C@H](CO[C@@H]5O[C@@H](C)[C@H](O)[C@@H](O)[C@H]5O)[C@@H](O)[C@H](O)[C@H]4O)cc3o2)cc1O | inconclusive: 37.6 µM [cytotoxic, partial curve, poor fit] | 
10 | CCCCCCCCCCCCOCCOS(=O)(=O)O | inconclusive: 77 µM [cytotoxic, single point] | 
11 | N#CCC(=O)NN |  | inactive: 3.06% [at 42.5 µM]
12 | CCCCCCCCCCCCCCOS(=O)(=O)O | inconclusive: 61.1 µM [cytotoxic, partial curve] | 
13 | O=C(O)C(Cc1cc(I)c(O)c(I)c1)c1ccccc1 (centres undefined) | inconclusive: 11.9 µM [cytotoxic, single point] | 
14 | COc1ccc2c(c1)c(CC(=O)O)c(C)n2C(=O)c1ccc(Cl)cc1 | inconclusive: 48.9 µM [cytotoxic, partial curve] and inconclusive: 30.6 µM [cytotoxic, partial curve] | 
15 | C=COCCCCO |  | inactive: 0.325%
16 | CC1=CC(=O)/C(=C(/C)O)C(=O)O1 |  | inactive: 3.09%
17 | CN(C)Cc1cc(CN(C)C)c(O)c(CN(C)C)c1 | inactive | 
18 | COC(=O)C(C)(C)C | inconclusive: 69.6 µM [cytotoxic, partial curve, poor fit] | 
19 | O=C1N(c2ccccc2)c2ccccc2C1(Cc1ccncc1)Cc1ccncc1 | inconclusive: 23.7 µM [rising, partial curve, poor fit] | 
20 | CC(C)(N)C#N |  | inactive: 2.01%

Row | Compound | Potency | viability change, negative = cytotoxic
21 | CN(C)CCCN1c2ccccc2Sc2ccccc21 | inconclusive: 29.8 µM [cytotoxic, partial curve] | 
22 | COC(=O)c1ccc(I)cc1S(=O)(=O)NC(=O)Nc1nc(C)nc(OC)n1 |  | inactive: 0.672%
23 | CCc1c2c(nc3ccc(OC(=O)N4CCC(N5CCCCC5)CC4)cc13)-c1cc3c(c(=O)n1C2)COC(=O)[C@]3(O)CC | inconclusive: 37.6 µM [cytotoxic, single point] | 
24 | CN1CCC(=C2c3ccccc3Sc3ccccc32)CC1 | inconclusive: 33.5 µM [cytotoxic, partial curve, poor fit] | 
25 | CCCNCC(O)COc1ccccc1C(=O)CCc1ccccc1 (centres undefined) | inconclusive: 33.5 µM [cytotoxic, single point] | 
26 | Cc1ccc(S(=O)(=O)N=C=O)cc1 | inactive | 
27 | O=C1Nc2ccc([N+](=O)[O-])cc2C1=O | inconclusive: 68.5 µM [cytotoxic, single point] | 
28 | CC(C)(C)C(=O)CCc1ccc(Cl)cc1 |  | inactive: -5.21%
29 | O=C(Nc1ccc([N+](=O)[O-])cc1)Nc1ccc([N+](=O)[O-])cc1 (tested in a mixture with another compound) | inconclusive: 26.6 µM [cytotoxic, single point] | 
30 | O=C1c2cccc(O)c2C(=O)c2c(O)cc(CO)cc21 | inconclusive: 21.7 µM [cytotoxic, partial curve] | 
31 | O=C(C1CCCCC1)N1CC(=O)N2CCc3ccccc3C2C1 (centres undefined) | inconclusive: 54.4 µM [cytotoxic, partial curve] and inconclusive: 48.6 µM [cytotoxic] and inconclusive: 33.5 µM [cytotoxic, single point] | 
32 | C#CCN[C@@H]1CCc2ccccc21 |  | inactive: 2.47% [at 42.5 µM]
33 | Cc1c(N)cccc1[N+](=O)[O-] | inconclusive: 49.3 µM [cytotoxic, partial curve, poor fit] | 
34 | CCC(CC)Nc1ccc(C)c(C)c1 |  | inactive: 0.176%
35 | CN(C)[C@@H]1C(=O)C(C(=O)NCN2CCCC2)=C(O)[C@@]2(O)C(=O)C3=C(O)c4c(O)cccc4[C@@](C)(O)C3C[C@@H]12 (some centres undefined) |  | inactive: 1.16% [at 42.5 µM]
36 | O=C(CCC1CCN(Cc2ccccc2)CC1)c1ccc2c(c1)NCCCC2 | inconclusive: 29.8 µM [cytotoxic, single point] | 
37 | C1=C\CC/C=C\CC/C=C\CC/1 |  | inactive: -2.44%
38 | O=S(=O)(O)c1cc(I)c(O)c2ncccc12 |  | inactive: 0.946% [at 42.5 µM]
39 | CC1CCCCC1 |  | inactive: 2.51%

Target: Thyrotropin receptor (Homo sapiens) (UniProt P16473)
Assay: qHTS assay to identify small molecule agonists of the thyroid stimulating hormone receptor (TSHR) signaling pathway (AID 1224843; calls by dose curve; note: nearly all actives have a fitted effect of over 45% in size)
Settings: TSHR-HEK293 cells, cAMP HTRF, agonist mode, 30 min; activation: at 92.4 µM (top of the series) unless noted
How it was run: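 A cell-based cAMP HTRF format was run in TSHR-transfected HEK293 cells, 800 per well. Treatment: 30 min, room temperature. Detection: 1 h with labelled cAMP and anti-cAMP cryptate. Concentration-response over 15 points, three replicates.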

Sequence of UniProt P16473 (P16473 whole entry, looked up): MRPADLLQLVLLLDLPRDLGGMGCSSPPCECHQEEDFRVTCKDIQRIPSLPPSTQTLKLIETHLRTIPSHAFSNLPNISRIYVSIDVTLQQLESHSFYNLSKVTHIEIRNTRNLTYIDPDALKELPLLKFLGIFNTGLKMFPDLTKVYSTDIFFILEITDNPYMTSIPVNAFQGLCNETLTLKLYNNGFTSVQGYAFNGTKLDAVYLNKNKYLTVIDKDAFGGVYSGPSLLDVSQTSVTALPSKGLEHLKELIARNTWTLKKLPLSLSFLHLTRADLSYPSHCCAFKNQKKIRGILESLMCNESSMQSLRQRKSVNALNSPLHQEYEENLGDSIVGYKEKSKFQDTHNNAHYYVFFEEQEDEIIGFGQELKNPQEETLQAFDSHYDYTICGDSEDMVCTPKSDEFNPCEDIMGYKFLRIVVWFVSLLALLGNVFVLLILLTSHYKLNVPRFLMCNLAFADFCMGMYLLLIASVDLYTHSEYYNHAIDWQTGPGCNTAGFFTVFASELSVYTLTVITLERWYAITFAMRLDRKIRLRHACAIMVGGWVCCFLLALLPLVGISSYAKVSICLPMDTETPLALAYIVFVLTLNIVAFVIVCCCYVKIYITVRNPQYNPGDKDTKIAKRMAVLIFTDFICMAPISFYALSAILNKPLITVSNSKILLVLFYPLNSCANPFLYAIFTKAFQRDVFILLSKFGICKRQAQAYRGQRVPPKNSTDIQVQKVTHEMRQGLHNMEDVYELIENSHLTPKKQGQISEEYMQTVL

Row | Compound | Potency | activation
40 | CC[N+](CC)(CC(=O)Nc1c(C)cccc1C)Cc1ccccc1 (tested in a mixture with another compound) | inconclusive: 0.801 µM [falling, full curve, poor fit] | 
41 | CCCCCCCCCCCCCCOS(=O)(=O)O |  | inconclusive: -30.6%
42 | C=COCCCCO |  | inactive: -12.3%
43 | CC(C)(N)C#N |  | inconclusive: 7.45%
44 | CC(C)(C)C(=O)CCc1ccc(Cl)cc1 | inconclusive: 38.6 µM [inhibitor, partial curve, poor fit] | 
